Results as given in paper PMC12668310, “High‐Throughput Synthesis and Screening of a Cyanimide Library Identifies Selective Inhibitors of ISG15‐Specific Protease mUSP18” (Angewandte Chemie (International Ed. in English), 2025).

What was measured:
mUSP18 [1] = target: T1, mUSP18 (Mus musculus, UniProt Q9WTV6); assay: IC50 determination, fluorogenic ISG15CT-Rho-morpholine activity assay; format: biochemical, murine
T1 construct: (46-368); His-tag (N); made in house
T1 sequence (Q9WTV6 46-368): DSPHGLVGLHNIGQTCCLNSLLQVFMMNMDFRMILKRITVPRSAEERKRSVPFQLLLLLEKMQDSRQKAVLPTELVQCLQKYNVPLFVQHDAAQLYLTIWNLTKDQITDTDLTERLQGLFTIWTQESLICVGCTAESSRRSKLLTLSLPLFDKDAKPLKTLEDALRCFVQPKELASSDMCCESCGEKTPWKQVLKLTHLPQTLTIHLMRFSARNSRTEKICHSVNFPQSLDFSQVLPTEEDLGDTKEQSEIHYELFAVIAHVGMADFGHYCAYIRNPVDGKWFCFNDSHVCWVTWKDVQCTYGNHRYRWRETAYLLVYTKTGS

mUSP18/ISG15 interaction = target: T2, mUSP18/ISG15 interaction (Mus musculus, UniProt Q9WTV6); assay: NanoBRET assay, mUSP18/ISG15 interaction in HEK293T cells
T2 sequence (Q9WTV6 1-368): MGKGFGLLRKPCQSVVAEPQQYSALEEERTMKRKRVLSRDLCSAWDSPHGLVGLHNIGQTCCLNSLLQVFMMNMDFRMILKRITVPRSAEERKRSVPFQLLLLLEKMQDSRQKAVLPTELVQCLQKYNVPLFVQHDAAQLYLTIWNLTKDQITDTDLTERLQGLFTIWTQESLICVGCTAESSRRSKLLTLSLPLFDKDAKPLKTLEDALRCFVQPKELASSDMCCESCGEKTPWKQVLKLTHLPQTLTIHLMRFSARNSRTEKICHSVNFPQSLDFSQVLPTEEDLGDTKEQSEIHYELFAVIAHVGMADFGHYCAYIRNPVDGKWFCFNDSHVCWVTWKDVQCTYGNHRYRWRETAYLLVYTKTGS

[2] = tested on: cellular ISGylation in SUP-T1 cells (human USP18); assay: ISGylation assay in human IFN-β-stimulated SUP-T1 cells; format: cell-based; settings: 4 h treatment
12 Ub(‐like) proteases = assay: High-throughput screening, whole panel of twelve enzymes; format: biochemical; settings: crude mixture, 1.25 µM; enzymes other than mUSP18
Procedure: Since the in‐plate synthesis was conducted in 1536‐well Echo plates, the compounds could readily be transferred from these plates into 1536‐well assay plates using acoustic liquid dispensing (Figure 2a) and subjected to HTS. We screened the whole 7536 compound library against a panel of twelve enzymes, including three DUBs from the UCH family, two DUBs from the OTU family, five DUBs from the USP family, plus ISG15 protease USP18, and SUMO protease SENP1. Each compound was tested at a single dose of 1.25 µM, assuming full conversion (10 mM in DMSO of the formed products) during the in‐plate synthesis, using the fluorogenic assay described above. […] The compounds are sorted by the amine building blocks (BB1‐16), and within each BB, sorted by carboxylic acid (CA1‐471), thereby providing a comprehensive and systematic overview of the overall inhibition by each BB and CA combination. Some interesting patterns can be obtained from this map. […] Indeed, BB10 is the privileged scaffold for UCHL1 as it originates from UCHL1 inhibitor 5 (Figure 1). […]
(§1) The percentage inhibition was calculated for each well using the […]
(§2) Where FIx is the fluorescence intensity of each well, FIpos is the average fluorescence intensity of the positive (NEM) control wells, and FIneg is the average fluorescence intensity of the negative (DMSO) control wells.

human USP18 = target: T3, human USP18 (Homo sapiens, UniProt Q9UMW8); assay: IC50 determination, ISG15ct-RhoMP substrate; format: biochemical; settings: 30 min pre-incubation
T3 construct: (16-372); His6-GST; made in house
T3 sequence (Q9UMW8 16-372): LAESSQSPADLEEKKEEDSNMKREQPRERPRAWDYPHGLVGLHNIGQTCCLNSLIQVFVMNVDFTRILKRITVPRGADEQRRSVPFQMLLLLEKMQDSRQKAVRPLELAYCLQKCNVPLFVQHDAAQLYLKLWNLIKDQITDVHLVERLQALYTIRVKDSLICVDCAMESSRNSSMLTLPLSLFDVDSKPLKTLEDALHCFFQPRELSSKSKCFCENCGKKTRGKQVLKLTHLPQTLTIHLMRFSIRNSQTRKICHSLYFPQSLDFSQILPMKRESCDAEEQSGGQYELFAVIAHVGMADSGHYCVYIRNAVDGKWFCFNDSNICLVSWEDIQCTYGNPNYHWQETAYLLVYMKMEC

mUSP18 [3] = target: T1, mUSP18; assay: ISG15CT-Rho activity assay at single concentration (DUB panel conditions); format: biochemical, murine; settings: 250 nM compound, 30 min incubation
Procedure: (§3) Data for mUSP18 inhibition was generated separately in an ISG15CT‐Rho activity assay using the same buffer, compound concentration, and 30 min incubation time.
(§4) To gain further insights into the selectivity of BB07CA902 for mUSP18, the compound (250 nM concentration) was tested on a DUB panel comprising 41 different recombinant DUBs, including 22 from the structurally related USP family.

[4] = target: T4, human USP18/STAT2 interaction (Homo sapiens, UniProt Q9UMW8); assay: NanoBRET assay, hUSP18/STAT2 interaction in HEK293T cells
T4 sequence (Q9UMW8 1-372): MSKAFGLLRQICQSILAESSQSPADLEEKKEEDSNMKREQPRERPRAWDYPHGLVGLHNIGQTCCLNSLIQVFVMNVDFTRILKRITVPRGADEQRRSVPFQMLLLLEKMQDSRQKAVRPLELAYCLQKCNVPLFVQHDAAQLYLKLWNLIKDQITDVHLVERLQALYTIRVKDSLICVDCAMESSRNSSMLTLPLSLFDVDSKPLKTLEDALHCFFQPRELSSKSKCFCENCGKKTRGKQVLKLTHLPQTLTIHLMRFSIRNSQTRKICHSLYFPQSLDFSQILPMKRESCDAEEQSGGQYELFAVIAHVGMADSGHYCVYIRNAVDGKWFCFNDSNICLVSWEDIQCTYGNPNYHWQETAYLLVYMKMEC

[5] = target: murine USP18/human STAT2 interaction (Mus musculus, UniProt Q9WTV6); assay: NanoBRET assay, mUSP18/STAT2 interaction in HEK293T cells; settings: highest compound concentration (10 µM)
murine USP18/human STAT2 interaction, sequence (P52630 whole entry partner, one chain of several): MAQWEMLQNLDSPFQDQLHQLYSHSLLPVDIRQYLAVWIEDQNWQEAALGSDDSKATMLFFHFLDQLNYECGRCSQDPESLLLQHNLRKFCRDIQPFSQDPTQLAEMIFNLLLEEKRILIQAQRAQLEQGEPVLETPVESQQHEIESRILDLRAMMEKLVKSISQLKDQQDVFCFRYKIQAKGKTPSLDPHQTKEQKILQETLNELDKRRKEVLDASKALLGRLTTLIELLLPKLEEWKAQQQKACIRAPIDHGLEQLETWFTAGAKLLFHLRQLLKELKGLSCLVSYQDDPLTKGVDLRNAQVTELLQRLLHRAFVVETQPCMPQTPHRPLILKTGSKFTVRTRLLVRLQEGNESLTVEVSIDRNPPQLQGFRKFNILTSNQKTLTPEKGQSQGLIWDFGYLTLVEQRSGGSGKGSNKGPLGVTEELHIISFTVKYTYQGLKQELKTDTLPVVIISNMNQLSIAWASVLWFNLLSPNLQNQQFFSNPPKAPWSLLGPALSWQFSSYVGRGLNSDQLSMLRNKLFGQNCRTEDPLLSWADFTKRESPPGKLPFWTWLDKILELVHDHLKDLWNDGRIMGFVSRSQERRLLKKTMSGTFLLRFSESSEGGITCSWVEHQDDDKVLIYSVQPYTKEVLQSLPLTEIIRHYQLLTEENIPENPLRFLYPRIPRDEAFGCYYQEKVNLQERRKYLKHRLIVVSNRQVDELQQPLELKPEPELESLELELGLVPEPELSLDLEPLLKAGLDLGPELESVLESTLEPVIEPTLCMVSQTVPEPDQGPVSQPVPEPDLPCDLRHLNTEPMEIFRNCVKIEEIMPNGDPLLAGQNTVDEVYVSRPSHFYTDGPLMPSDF

papain = target: T5, papain (Carica papaya, UniProt P00784); assay: IC50 determination, Z-FR-AMC substrate; format: biochemical; settings: 30 min pre-incubation
T5 construct: papaya latex; purchased Sigma Aldrich P3125; host or cells: papaya latex
T5 sequence (P00784 134-345): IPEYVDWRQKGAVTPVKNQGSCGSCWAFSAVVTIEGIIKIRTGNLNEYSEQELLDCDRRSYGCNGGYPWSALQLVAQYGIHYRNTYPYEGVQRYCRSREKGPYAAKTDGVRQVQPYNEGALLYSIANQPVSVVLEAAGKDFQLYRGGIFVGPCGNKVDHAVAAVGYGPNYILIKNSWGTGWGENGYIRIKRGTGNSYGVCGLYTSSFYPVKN

[6] = tested on: 41 different recombinant DUBs; assay: DUBprofiler selectivity screen (Ubiquigent), Ub-Rho activity assay; format: biochemical; settings: 250 nM compound, n = 1
Procedure: as §3, §4
High-throughput screening
The screens were performed at room temperature in “flat bottom, non-treated, black […]
µM. The compounds (10 nL each) were transferred from the 1 mM daughter plates to the […]
Four wells containing DMSO
(10 nL) and four wells containing NEM (10 mM final concentration) were used in each plate […]
solution (1.33x final concentration) was added to each well, followed by incubation for 30 min.
Next, 2 µL of a substrate solution (4x final concentration) was added to each well (Ub-RhoMP[2]
After 1h or 2h incubation the
as §1, §2
Selectivity determination (Ubiquigent)
DUBprofiler assays were performed by Ubiquigent. BB07CA902 was tested at 0.25 µM using 100 nM ubiquitin-rhodamine110 as substrate. […]

HEK293T cells = assay: CellTiter-Glo 2.0 cell viability assay; format: cell-based, human
Procedure: interaction of p53 with MDM2, and cell viability assay. A) BRET ratio of p53/MDM2
B) Cell viability assay with inhibitor
BB07CA902 in HEK293T cells.
with three technical replicates.
for donor saturation assays.
acceptor plasmid (HaloTag fusion vector).
was added where necessary.
compound disruption assays.
Equivalent volumes of DMSO were
To assess potential nonspecific
(RLU) normalized to vehicle-treated controls.

[7] = pure (re-synthesized) compound, mean ± SD n = 3

IC50 (mUSP18 [1]; after 30 min incubation, purified compound, ISG15CT-Rho-morpholine substrate) | reduction in potency on mUSP18 versus stereoisomer BB07CA902 (mUSP18 [1]; ratio of IC50 values) | IC50 in-cell mUSP18/ISG15 interaction (mUSP18/ISG15 interaction; NanoBRET, HEK293T cells, 0.01–10 µM) | inhibition of all other enzymes tested (12 Ub(‐like) proteases) | IC50 (mUSP18 [1]; [7]) | IC50 (human USP18) | inhibition of mUSP18 at DUB panel concentration (mUSP18 [3]) | inhibition of hUSP18/STAT2 interaction [4] | decrease in BRET signal, mUSP18/STAT2 interaction [5] | IC50 (papain) | IC50 (mUSP18/ISG15 interaction) | Compound | accumulation of ISGylation [2] | inhibition of DUB panel comprising 41 recombinant DUBs [6] | cell viability (HEK293T cells)
11000 ± 830 nM | > 300 fold | did not show any inhibition | – | – | – | – | – | – | – | – | Cc1cc(C(=O)N[C@@H]2C[C@@H]3CN(C#N)C[C@@H]3C2)ccc1C(C)C [BB06CA902] | not increased | – | –
– | – | – | negligible inhibition | 95 ± 3.7 nM | – | – | – | – | – | – | Cc1cc(C(=O)N[C@H]2C[C@@H]3CN(C#N)C[C@@H]3C2)ccc1Br [BB07CA28] | – | – | –
– | – | – | – | 35 nM | 1200 nM | near complete inhibition | did not observe any inhibition | 20% | 27000 nM | 2000 nM | Cc1cc(C(=O)N[C@H]2C[C@@H]3CN(C#N)C[C@@H]3C2)ccc1C(C)C [BB07CA902] | – | none of these DUBs was inhibited | not toxic
